# Measurements reported in the supplement of paper PMC8728848.
# The other results are listed elsewhere or left out.
# B1: Siglec-9 (Homo sapiens), Q9Y336 (protein)
# chain: MLLLLLPLLWGRERAEGQTSKLLTMQSSVTVQEGLCVHVPCSFSYPSHGWIYPGPVVHGYWFREGANTDQDAPVATNNPARAVWEETRDRFHLLGDPHTKNCTLSIRDARRSDAGRYFFKMEKGSIKWNYKHHRLSVNVTALTHRPNILIPGTLESGCPQNLTCSVPWACEQGTPPMISWIGTSVSPLDPSTTRSSVLTLIPQPQDHGTSLTCQVTFPGASVTTNKTVHLNVSYPPQNLTMTVFQGDGTVSTVLGNGSSLSLPEGQSLRLVCAVDAVDSNPPARLSLSWRGLTLCPSQPSNPGVLELPWVHLRDAAEFTCRAQNPLGSQQVYLNVSLQSKATSGVTQGVVGGAGATALVFLSFCVIFVVVRSCRKKSARPAAGVGDTGIEDANAVRGSASQGPLTEPWAEDSPPDQPPPASARSSVGEGELQYASLSFQMVKPWDSRGQEATDTEYSEIKIHR
# What was measured:
# Assay in all cases: glycan array binding signal (z-score within array); higher = stronger binding
# Conditions in all cases: glycan notation: IUPAC condensed, linker removed; mutation: R120K
# [1] = target: Fuc(a1-2)Gal6S(b1-3)GlcNAc
# Procedure, shortened: (§1)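 Glycan array data were curated from 3228 arrays in the Consortium for Functional Glycomics database and kept only where the protein sequence was available. Glycan names were converted to IUPAC-condensed notation, and columns mapping to the same glycan were averaged. The binding signal is a within-array Z-score, averaged across arrays of the same protein sequence at different concentrations or buffers and across linkers. Negative Z-scores can be read as non-binding.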
# [2] = target: Fuc(a1-2)Gal6S(b1-3)GlcNAc6S
# Procedure, shortened: as §1
# Fuc(a1-2)Gal6S(b1-4)Glc = target: Fuc(a1-2)Gal6S(b1-4)Glc
# Procedure, shortened: as §1
# [3] = target: Fuc(a1-2)Gal6S(b1-4)Glc6S
# Procedure, shortened: as §1
# Fuc(a1-2)[Gal(a1-3)]Gal = target: Fuc(a1-2)[Gal(a1-3)]Gal
# Procedure, shortened: as §1
# [4] = target: Fuc(a1-2)[Gal(a1-3)]Gal(b1-3)GalNAc
# Procedure, shortened: as §1
# [5] = target: Fuc(a1-2)[Gal(a1-3)]Gal(b1-3)GalNAc(b1-3)Gal(a1-4)Gal(b1-4)Glc
# Procedure, shortened: as §1
# [6] = target: Fuc(a1-2)[Gal(a1-3)]Gal(b1-3)GlcNAc
# Procedure, shortened: as §1
# [7] = target: Fuc(a1-2)[Gal(a1-3)]Gal(b1-3)GlcNAc(b1-2)Man(a1-3)[Fuc(a1-2)[Gal(a1-3)]Gal(b1-3)GlcNAc(b1-2)Man(a1-6)]Man(b1-4)GlcNAc(b1-4)GlcNAc
# Procedure, shortened: as §1
# [8] = target: Fuc(a1-2)[Gal(a1-3)]Gal(b1-3)GlcNAc(b1-2)Man(a1-3)[Fuc(a1-2)[Gal(a1-3)]Gal(b1-3)GlcNAc(b1-2)Man(a1-6)]Man(b1-4)GlcNAc(b1-4)[Fuc(a1-6)]GlcNAc
# Procedure, shortened: as §1
# [9] = target: Fuc(a1-2)[Gal(a1-3)]Gal(b1-3)GlcNAc(b1-3)GalNAc
# Procedure, shortened: as §1
# [10] = target: Fuc(a1-2)[Gal(a1-3)]Gal(b1-3)GlcNAc(b1-6)GalNAc
# Procedure, shortened: as §1
# [11] = target: Fuc(a1-2)[Gal(a1-3)]Gal(b1-4)Glc
# Procedure, shortened: as §1
# [12] = target: Fuc(a1-2)[Gal(a1-3)]Gal(b1-4)GlcNAc
# Procedure, shortened: as §1
# [13] = target: Fuc(a1-2)[Gal(a1-3)]Gal(b1-4)GlcNAc(b1-2)Man
# Procedure, shortened: as §1
# [14] = target: Fuc(a1-2)[Gal(a1-3)]Gal(b1-4)GlcNAc(b1-2)Man(a1-3)[Fuc(a1-2)[Gal(a1-3)]Gal(b1-4)GlcNAc(b1-2)Man(a1-6)]Man(b1-4)GlcNAc(b1-4)GlcNAc
# Procedure, shortened: as §1
# [15] = target: Fuc(a1-2)[Gal(a1-3)]Gal(b1-4)GlcNAc(b1-2)Man(a1-3)[Fuc(a1-2)[Gal(a1-3)]Gal(b1-4)GlcNAc(b1-2)Man(a1-6)]Man(b1-4)GlcNAc(b1-4)[Fuc(a1-6)]GlcNAc
# Procedure, shortened: as §1
# [16] = target: Fuc(a1-2)[Gal(a1-3)]Gal(b1-4)GlcNAc(b1-3)GalNAc
# Procedure, shortened: as §1
# [17] = target: Fuc(a1-2)[Gal(a1-3)]Gal(b1-4)GlcNAc(b1-3)[Fuc(a1-2)[Gal(a1-3)]Gal(b1-4)GlcNAc(b1-6)]GalNAc
# Procedure, shortened: as §1
# [18] = target: Fuc(a1-2)[Gal(a1-3)]Gal(b1-4)GlcNAc(b1-6)GalNAc
# Procedure, shortened: as §1
# [19] = target: Fuc(a1-2)[Gal(a1-3)]Gal(b1-4)[Fuc(a1-3)]Glc
# Procedure, shortened: as §1
# [20] = target: Fuc(a1-2)[Gal(a1-3)]Gal(b1-4)[Fuc(a1-3)]GlcNAc
# Procedure, shortened: as §1
# [21] = target: Fuc(a1-2)[Gal(a1-3)]Gal(b1-4)[Fuc(a1-3)]GlcNAc(b1-3)GalNAc
# Procedure, shortened: as §1
# [22] = target: Fuc(a1-2)[Gal(a1-4)]Gal(b1-4)GlcNAc
# Procedure, shortened: as §1
# [23] = target: Fuc(a1-2)[GalNAc(a1-3)]Gal
# Procedure, shortened: as §1
# [24] = target: Fuc(a1-2)[GalNAc(a1-3)]Gal(b1-3)GalNAc(a1-3)[Fuc(a1-2)]Gal(b1-4)GlcNAc
# Procedure, shortened: as §1
# [25] = target: Fuc(a1-2)[GalNAc(a1-3)]Gal(b1-3)GalNAc(b1-3)Gal(a1-4)Gal(b1-4)Glc
# Procedure, shortened: as §1
# [26] = target: Fuc(a1-2)[GalNAc(a1-3)]Gal(b1-3)GlcNAc
# Procedure, shortened: as §1
# [27] = target: Fuc(a1-2)[GalNAc(a1-3)]Gal(b1-3)GlcNAc(b1-2)Man(a1-3)[Fuc(a1-2)[GalNAc(a1-3)]Gal(b1-3)GlcNAc(b1-2)Man(a1-6)]Man(b1-4)GlcNAc(b1-4)GlcNAc
# Procedure, shortened: as §1
# [28] = target: Fuc(a1-2)[GalNAc(a1-3)]Gal(b1-3)GlcNAc(b1-2)Man(a1-3)[Fuc(a1-2)[GalNAc(a1-3)]Gal(b1-3)GlcNAc(b1-2)Man(a1-6)]Man(b1-4)GlcNAc(b1-4)[Fuc(a1-6)]GlcNAc
# Procedure, shortened: as §1
# [29] = target: Fuc(a1-2)[GalNAc(a1-3)]Gal(b1-3)GlcNAc(b1-3)GalNAc
# Procedure, shortened: as §1
# [30] = target: Fuc(a1-2)[GalNAc(a1-3)]Gal(b1-3)GlcNAc(b1-6)GalNAc
# Procedure, shortened: as §1
# [31] = target: Fuc(a1-2)[GalNAc(a1-3)]Gal(b1-4)Glc
# Procedure, shortened: as §1
# [32] = target: Fuc(a1-2)[GalNAc(a1-3)]Gal(b1-4)GlcNAc
# Procedure, shortened: as §1
# [33] = target: Fuc(a1-2)[GalNAc(a1-3)]Gal(b1-4)GlcNAc(b1-2)Man
# Procedure, shortened: as §1
# [34] = target: Fuc(a1-2)[GalNAc(a1-3)]Gal(b1-4)GlcNAc(b1-2)Man(a1-3)[Fuc(a1-2)[GalNAc(a1-3)]Gal(b1-4)GlcNAc(b1-2)Man(a1-6)]Man(b1-4)GlcNAc(b1-4)GlcNAc
# Procedure, shortened: as §1
# [35] = target: Fuc(a1-2)[GalNAc(a1-3)]Gal(b1-4)GlcNAc(b1-2)Man(a1-3)[Fuc(a1-2)[GalNAc(a1-3)]Gal(b1-4)GlcNAc(b1-2)Man(a1-6)]Man(b1-4)GlcNAc(b1-4)[Fuc(a1-6)]GlcNAc
# Procedure, shortened: as §1
# [36] = target: Fuc(a1-2)[GalNAc(a1-3)]Gal(b1-4)GlcNAc(b1-3)Gal(b1-4)GlcNAc
# Procedure, shortened: as §1
# [37] = target: Fuc(a1-2)[GalNAc(a1-3)]Gal(b1-4)GlcNAc(b1-3)Gal(b1-4)GlcNAc(b1-3)Gal(b1-4)GlcNAc
# Procedure, shortened: as §1
# [38] = target: Fuc(a1-2)[GalNAc(a1-3)]Gal(b1-4)GlcNAc(b1-3)GalNAc
# Procedure, shortened: as §1
# [39] = target: Fuc(a1-2)[GalNAc(a1-3)]Gal(b1-4)GlcNAc(b1-3)[Fuc(a1-2)[GalNAc(a1-3)]Gal(b1-4)GlcNAc(b1-6)]GalNAc
# Procedure, shortened: as §1
# [40] = target: Fuc(a1-2)[GalNAc(a1-3)]Gal(b1-4)GlcNAc(b1-6)GalNAc
# Procedure, shortened: as §1
# [41] = target: Fuc(a1-2)[GalNAc(a1-3)]Gal(b1-4)[Fuc(a1-3)]GlcNAc
# Procedure, shortened: as §1
# [42] = target: Fuc(a1-2)[GalNAc(a1-3)]Gal(b1-4)[Fuc(a1-3)]GlcNAc(b1-3)GalNAc
# Procedure, shortened: as §1
# [43] = target: Fuc(a1-2)[GalNAc(a1-4)]Gal(b1-4)GlcNAc
# Procedure, shortened: as §1
binder,measurement,setting,value
B1,glycan array binding signal (z-score),[1],-0.487
same,glycan array binding signal (z-score),[2],2.46
same,glycan array binding signal (z-score),Fuc(a1-2)Gal6S(b1-4)Glc,-0.486
same,glycan array binding signal (z-score),[3],0.178
same,glycan array binding signal (z-score),Fuc(a1-2)[Gal(a1-3)]Gal,-0.129
same,glycan array binding signal (z-score),[4],0.739
same,glycan array binding signal (z-score),[5],-0.048
same,glycan array binding signal (z-score),[6],0.221
same,glycan array binding signal (z-score),[7],-0.329
same,glycan array binding signal (z-score),[8],1.14
same,glycan array binding signal (z-score),[9],0.027
same,glycan array binding signal (z-score),[10],-0.151
same,glycan array binding signal (z-score),[11],-0.003
same,glycan array binding signal (z-score),[12],-0.223
same,glycan array binding signal (z-score),[13],0.014
same,glycan array binding signal (z-score),[14],-0.311
same,glycan array binding signal (z-score),[15],0.237
same,glycan array binding signal (z-score),[16],-0.31
same,glycan array binding signal (z-score),[17],5.67
same,glycan array binding signal (z-score),[18],0.029
same,glycan array binding signal (z-score),[19],-0.618
same,glycan array binding signal (z-score),[20],0.201
same,glycan array binding signal (z-score),[21],-0.041
same,glycan array binding signal (z-score),[22],0.346
same,glycan array binding signal (z-score),[23],-0.409
same,glycan array binding signal (z-score),[24],-0.024
same,glycan array binding signal (z-score),[25],-0.378
same,glycan array binding signal (z-score),[26],-0.271
same,glycan array binding signal (z-score),[27],-0.472
same,glycan array binding signal (z-score),[28],1.13
same,glycan array binding signal (z-score),[29],0.362
same,glycan array binding signal (z-score),[30],-0.432
same,glycan array binding signal (z-score),[31],-0.252
same,glycan array binding signal (z-score),[32],-0.241
same,glycan array binding signal (z-score),[33],0.112
same,glycan array binding signal (z-score),[34],-0.011
same,glycan array binding signal (z-score),[35],0.487
same,glycan array binding signal (z-score),[36],-0.399
same,glycan array binding signal (z-score),[37],-0.302
same,glycan array binding signal (z-score),[38],-0.125
same,glycan array binding signal (z-score),[39],0.672
same,glycan array binding signal (z-score),[40],-0.433
same,glycan array binding signal (z-score),[41],-0.182
same,glycan array binding signal (z-score),[42],-0.138
same,glycan array binding signal (z-score),[43],-0.264
